Biological target: T1, His-menin (UniProt O00255-2 1-610)
T1 sequence (looked up): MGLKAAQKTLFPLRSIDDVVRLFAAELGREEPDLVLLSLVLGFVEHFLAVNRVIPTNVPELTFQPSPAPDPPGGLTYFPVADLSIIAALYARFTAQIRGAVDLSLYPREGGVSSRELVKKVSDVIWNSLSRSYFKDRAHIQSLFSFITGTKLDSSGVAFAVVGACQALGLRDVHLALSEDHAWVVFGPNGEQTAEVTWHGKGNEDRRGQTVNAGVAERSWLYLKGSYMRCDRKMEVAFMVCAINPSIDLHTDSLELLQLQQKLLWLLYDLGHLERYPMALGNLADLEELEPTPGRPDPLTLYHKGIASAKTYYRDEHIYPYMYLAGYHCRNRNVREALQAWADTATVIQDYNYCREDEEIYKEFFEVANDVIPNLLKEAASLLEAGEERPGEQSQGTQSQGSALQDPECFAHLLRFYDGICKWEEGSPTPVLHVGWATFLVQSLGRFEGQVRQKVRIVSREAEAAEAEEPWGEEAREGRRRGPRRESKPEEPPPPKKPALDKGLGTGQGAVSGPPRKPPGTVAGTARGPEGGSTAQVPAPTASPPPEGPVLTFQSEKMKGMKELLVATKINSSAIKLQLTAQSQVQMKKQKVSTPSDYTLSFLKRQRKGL
Experiment: co-IP

B1: His-Daxx ([…]) (domain or fragment)
chain: not shown
B1: binds.

Reference: paper PMC5243199 (Cancer research, 2016)
